# Whole data set: some 33,000 sequences, median “E-score (-0.5 to 0.5)” near -0.016, cut for the highest 2% near 0.32. Some of the results follow.
# Molecular target: T1, Stp1 (UniProt B3LFK1)
# T1 sequence: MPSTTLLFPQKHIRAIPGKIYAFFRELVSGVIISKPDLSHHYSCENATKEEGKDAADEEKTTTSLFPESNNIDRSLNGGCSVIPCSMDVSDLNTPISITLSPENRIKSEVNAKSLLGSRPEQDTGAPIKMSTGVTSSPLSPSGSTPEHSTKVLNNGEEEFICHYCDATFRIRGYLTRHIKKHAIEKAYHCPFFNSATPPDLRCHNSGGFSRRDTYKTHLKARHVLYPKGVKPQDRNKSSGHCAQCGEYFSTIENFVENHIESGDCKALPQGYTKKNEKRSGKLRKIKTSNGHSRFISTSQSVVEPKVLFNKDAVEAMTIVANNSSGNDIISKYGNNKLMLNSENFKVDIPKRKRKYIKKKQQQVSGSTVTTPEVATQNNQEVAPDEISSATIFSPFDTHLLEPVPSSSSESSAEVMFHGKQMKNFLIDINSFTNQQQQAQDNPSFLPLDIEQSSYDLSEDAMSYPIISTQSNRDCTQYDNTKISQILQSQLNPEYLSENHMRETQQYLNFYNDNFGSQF
# Test: PBM E-score (8-mer binding enrichment) (E-score (-0.5 to 0.5)); higher = stronger / more preferred TF binding; most listed sequences are background and not binding sites
# Conditions: protein concentration: 200 nM; construct: GST-full length
# Procedure, shortened: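 Full-length yeast transcription factors or their DNA-binding domains, GST-tagged and expressed with PURExpress, were applied at about 100-200 nM to universal all-10-mer Agilent arrays. These arrays had been made double-stranded by primer extension on fresh or once-stripped slides. Detection used fluorescent anti-GST, normalisation used masliner, and E-scores for ungapped eight-base words pooled with reverse complements came from the Universal PBM Analysis Suite.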
row,Sequence,PBM E-score
1,GGCCGTAC,0.424
2,CATAGAGG,-0.0241
3,AGCATTAT,0.0803
4,GCGGGTAA,-0.0218
5,ACGAGGTC,-0.144
6,ACCCGAAA,-0.149
7,GGGTATTA,-0.148
8,ATATATTC,0.226
9,ACAAACAA,0.0634
10,CTGCATCC,0.0297
11,CCTTTCTC,-0.144
12,CGTACCGA,0.00804
13,CAGTCATC,-0.254
14,CCACCTGC,-0.021
15,ATAGTCTA,-0.243
16,TCCGTCCA,-0.122
17,CGTAATAG,0.0375
18,TAGGTCAA,-0.0431
19,GTCCTTAA,-0.0475
20,AATCCGGC,-0.171
21,CCCCCATC,-0.243
22,CCTAATTA,-0.0644
23,CAGCCACG,0.12
24,ACAAGGCA,0.315
25,GTACACAC,0.0557

row,Sequence,PBM E-score
1,ACTACCTG,-0.0517
2,GAGTGGCA,0.166
3,AGTCTCAA,-0.219
4,ACTACCAC,-0.139
5,CCTGAGCA,-0.0592
6,AGAAATCC,0.0493
7,AGGGATTA,-0.0874
8,CGAAGAAG,0.0283
9,GAACGGGA,-0.0828
10,ACCCAAGC,-0.183
11,AATCCGTC,0.0578
12,AGGATACA,-0.0552
13,GTGGCGGA,-0.0941
14,CCTTGGAA,-0.0333
15,GACAAGGA,0.0206
16,CTAGTGCC,0.301
17,AAACTCTT,-0.0607
18,CGAAGATC,-0.0883
19,CGTCCATC,-0.0982
20,AGTGGTAA,0.00366
21,ACCTGTCG,-0.18
22,CGTCGAAG,0.0223
23,GGCGTAAA,0.26
24,ATTGAGAA,0.108
25,ACCGTCGA,-0.187

row,Sequence,PBM E-score
1,ACTAGGTA,-0.0597
2,CCGACATA,0.0721
3,AAAAGGCT,0.0632
4,TAACCAAA,0.0592
5,TGGGCCCA,-0.142
6,CTAAATAC,0.152
7,CTTGATGA,0.1
8,TGACTAAA,0.00189
9,CTCAGGAC,-0.052
10,ACTTCTAT,-0.0835
11,CCTCCAGG,-0.298
12,AACTACAT,-0.0896
13,ATGCACGA,-0.0978
14,CACAAACC,-0.0675
15,ACGAACAG,0.0187
16,ATAAACAC,0.0181
17,GCCAAAAA,0.114
18,TGGGACAA,-0.23
19,CGCCGATC,0.285
20,GACCGCAA,-0.101
21,GCGGTTCA,-0.0576
22,GCAACCTA,0.081
23,CCAGCACG,-0.0583
24,CCCCCAAG,-0.211
25,AGCCGAAC,-0.0533

row,Sequence,PBM E-score
1,ACATTCCT,-0.207
2,CATCTCTA,0.0101
3,AAGAACCG,0.0917
4,AAGACATT,-0.247
5,GATCGGTA,0.0323
6,GCATGAAA,0.105
7,CTGGTATC,-0.231
8,CGCCCTGA,0.0616
9,ACGATCTG,-0.175
10,AGCAGGGC,0.156
11,GCACCGCC,0.0961
12,AGCATCAC,-0.0605
13,ATAATTAA,0.149
14,ACAAGTGT,0.0368
15,GAGCTCCA,-0.108
16,ACATGGAG,-0.14
17,CAACCTCC,-0.179
18,ATGCCTAG,-0.00683
19,TAACGCCA,0.133
20,TGATTACA,0.177
21,AGCTACTG,-0.229
22,CAGTGTGA,0.0291
23,CGATGTGC,-0.0706
24,CGACCTGC,-0.135
25,GTCAACGA,-0.144

row,Sequence,PBM E-score
1,AAGATGAA,0.0075
2,ACCCCTAT,-0.167
3,AGTATCCA,-0.0503
4,ATCAAGAA,0.0777
5,CACCCTGA,-0.185
6,GACAGGAA,-0.0209
7,ACCATTCT,-0.0969
8,TGATACAA,0.113
9,GTGCGTTA,0.0947
10,GATGGCCA,-0.0578
11,ACTCCCAC,-0.0658
12,CCCGACTC,-0.263
13,AGTGGAAG,-0.0659
14,ATGAACTG,0.184
15,GATTGTTA,0.0355
16,CCAGTAGC,0.111
17,CCTCAGCG,-0.0368
18,AACGAGCT,-0.14
19,AAACCTTC,-0.334
20,ACGTAGAG,-0.131
21,CTGTATGA,0.101
22,CACCCTCC,-0.183
23,TAACTACA,0.096
24,CAAAACAC,0.186
25,CTGCGCAA,0.185

row,Sequence,PBM E-score
1,CGATCCGA,-0.0648
2,AAACTCCA,0.0303
3,ATACAATC,0.0964
4,ACTCCTCA,-0.135
5,AGGTCGTA,-0.0763
6,AAAACCGC,-0.044
7,AGTACAGC,-0.059
8,AGTGCAGA,-0.0955
9,AACAAGTT,0.133
10,AACGCATG,-0.0148
11,ATACATCG,0.0672
12,ATCCATTA,0.0118
13,AGATTTGC,0.182
14,CGCATCCG,0.114
15,CGCCCGCC,0.108
16,ACGGGGCG,0.366
17,CACGACGC,-0.0621
18,CATGGCGC,0.261
19,ACGACTAG,-0.0901
20,CGCCTATC,0.183
21,GCTCTTGA,-0.112
22,CATTGGTA,0.0352
23,ATGTCCTC,-0.113
24,ACCATGCG,0.0344
25,GGGTCGCA,-0.105

row,Sequence,PBM E-score
1,ATCGCCAA,-0.0739
2,TCTATCAA,-0.138
3,GCTATGCC,0.0204
4,CCCTGCTA,-0.104
5,AATAAAGT,0.0842
6,AGAGAATG,0.00764
7,CTCACACC,-0.176
8,ACTACCAG,-0.116
9,AGTCATGG,-0.225
10,CGTGTGGC,0.353
11,CCAAGCCG,0.0253
12,ACCAGCAC,-0.231
13,AGCCCGAG,-0.116
14,AGAGCTCT,-0.464
15,CGGCCAGC,-0.206
16,GGCGATGA,0.119
17,CTTAACTC,0.126
18,AGTCGACA,-0.0207
19,TATGGCCA,-0.13
20,AATTGTCG,0.088
21,CCTCGAAA,0.0836
22,AAGGAGTA,-0.223

# Source: the supplement of paper PMC3334620
